Results reported in PubChem BioAssay AID886 (National Center for Advancing Translational Sciences (NCATS), 2007).
Out of some 73,000 compounds screened, about 2,500 (3.4%) were called active. Inconclusive means that the source gave no clear call. Such entries were picked first, then a sample of the others. Calls follow the shape of the dose curve; as a rule, active = well fitted inhibition curve with a large enough effect; inconclusive = small, poorly fitted or top-dose-only effect; inactive = no such curve, though single readings can be large or run the other way. Potencies beside an inconclusive call are fits to weak or partial responses and may not hold up.

The compounds below were run against 3-hydroxyacyl-CoA dehydrogenase type-2 (Homo sapiens) (UniProt Q99714) (assay: qHTS Assay for Inhibitors of HADH2 (Hydroxyacyl-Coenzyme A Dehydrogenase, Type II)). Details: recombinant HADH2, NADH fluorescence, beta-hydroxybutyryl-CoA; activity change, negative = inhibition: at 57.1 µM (top of the series).
Sequence of UniProt Q99714 (Q99714 whole entry, looked up): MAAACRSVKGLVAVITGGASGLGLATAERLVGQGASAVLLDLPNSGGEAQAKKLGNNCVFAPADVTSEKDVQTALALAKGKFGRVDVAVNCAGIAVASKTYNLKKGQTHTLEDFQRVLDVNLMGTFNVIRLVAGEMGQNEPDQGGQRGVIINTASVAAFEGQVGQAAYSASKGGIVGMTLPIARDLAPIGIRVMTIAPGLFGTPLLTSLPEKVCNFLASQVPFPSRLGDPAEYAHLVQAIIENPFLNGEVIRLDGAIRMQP
Sequence of UniProt Q99714 (Q99714 whole entry, looked up): as above
In short: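 His-tagged recombinant enzyme from E. coli, 20 nM, preincubated 15 min RT with compound; reaction started with 1 mM NAD+ and 90 uM beta-hydroxybutyryl-CoA in 100 mM Tris-HCl pH 9.0. NADH fluorescence (ex 360/em 450) read over 4 min; last-minus-first difference.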
% is scaled to controls: 0 for no effect and ±100 for the full control effect; potency is read from the fitted curve at half-maximal effect; tags tell the direction and shape of the fitted curve.
Also: nearly all actives have a fitted effect of over 60% in size.

Row | Compound | Potency | activity change, negative = inhibition
1 | N#Cc1nc(COc2ccccc2)oc1NCCN1CCOCC1 | inactive | –
2 | CCn1c(SCC(=O)Nc2sc(C)c(C)c2C#N)nnc1C(C)C | inactive | –
3 | Cc1ccc(C)n1-c1ccc(N2CCOCC2)nc1 | active: 31.6 µM | –
4 | c1csc(-c2nc3nc4ccccc4nc3n2Cc2ccc3c(c2)OCO3)c1 | inconclusive: 39.8 µM [inhibitor, single point] | –
5 | Cc1c(=O)n(OCc2ccccc2F)c2ccccc2[n+]1[O-] | inactive | –
6 | Cc1noc(NS(=O)(=O)c2ccc(NC(=O)CSc3nc4c(cc3C#N)CCCC4)cc2)c1C | inconclusive: 25.1 µM [inhibitor, partial curve] | –
7 | FC(F)(F)c1cc(-c2ccc3c(c2)OCO3)nc(NCc2ccco2)n1 | inconclusive: 25.1 µM [inhibitor, single point] | –
8 | CCn1c(SCC(=O)c2ccc(NS(=O)(=O)c3ccccc3)cc2)nnc1-c1cccs1 | inconclusive: 31.6 µM [inhibitor, single point] | –
9 | O=P(c1ccccc1)(c1ccccc1)C(O)c1ccco1 (centres undefined) | inconclusive: 31.6 µM [inhibitor, single point] | –
10 | CCCCNC(=O)CCCCCn1c(=O)[nH]c2cc(OC)c(OC)cc2c1=O | inactive | –
11 | Cc1cc(C)c(S(=O)(=O)Nc2ccc(C(=O)O)c(O)c2)cc1C | inconclusive: 12.6 µM [inhibitor, partial curve] | –
12 | COC(=O)C1=C(C)NC(C)=C(C(=O)OCCSc2ccccc2)[C@@H]1C | inconclusive: 39.8 µM [inhibitor, single point] | –
13 | CCOC(=O)N1CCN(C(=O)c2cc3c(ccc4ccccc43)oc2=O)CC1 | inconclusive: 39.8 µM [inhibitor, single point] | –
14 | CCOC(=O)Cn1c(-c2ccccn2)nc2ccccc21 | inconclusive: 31.6 µM [inhibitor, single point] | –
15 | C=C(C)Cn1c(N2CCN(CC)CC2)nc2c1c(=O)[nH]c(=O)n2C | inconclusive: 0.631 µM [inhibitor, single point] | –
16 | O=c1cc(-c2ccco2)oc2ccc(Cl)cc12 | inconclusive: 12.6 µM [inhibitor, single point] | –
17 | CCCSC1=N/C(=C\C=C\c2ccco2)C(=O)S1 | active: 5.01 µM | –
18 | COc1nc(C)ccc1-c1noc(-c2ccco2)n1 | inactive | –
19 | CCOc1cc(S(=O)(=O)NCc2ccco2)c(OCC)cc1-n1cnnn1 | inconclusive: 31.6 µM [inhibitor, single point] | –
20 | Cc1ccc(C(O)c2nc3ccccc3n2C(C)C)cc1 (centres undefined) | inconclusive: 39.8 µM [inhibitor, single point] | –
21 | CC(C)=CCC/C(C)=C/CO/N=C1/C[C@@H](O)[C@@H](O)[C@@H]2[C@@H]3C(=O)N(C[C@@H]4CCCO4)C(=O)[C@H]3CC[C@H]12 | inconclusive: 3.16 µM [inhibitor, single point] | –
22 | CN1CCN(CCCNN)CC1 | – | inactive: 11.2% [at 11.4 µM]
23 | C/C(N)=C(/C#N)C(=O)CSc1nc2cc(Cl)ccc2s1 | inconclusive: 12.6 µM [inhibitor, partial curve] | –
24 | COc1ccc(NC(=O)CSc2nnc(-c3ccccc3C)n2N)cc1 | inconclusive: 5.01 µM [inhibitor, partial curve] | –
25 | CC(=NCC(=O)O)c1ccccc1 | active: 3.16 µM | –

Row | Compound | Potency | activity change, negative = inhibition
26 | Cc1ccc(NC(=O)CSC2=C(C#N)C(c3ccc4c(c3)OCO4)C3=C(CCCC3=O)N2)c(C)c1 (centres undefined) | inconclusive: 2.51 µM [inhibitor, full curve] | –
27 | N=C1C(c2nc(-c3ccc(Cl)cc3)cs2)=C(O)CN1CCCN1CCOCC1 | inactive | –
28 | Cc1cc(NCCCn2ccnc2)n2nc(-c3ccc(F)cc3)cc2n1 | inconclusive: 39.8 µM [inhibitor, single point] | –
29 | Cc1ccc(C2c3c(oc4ccc(Cl)cc4c3=O)C(=O)N2CCCN2CCOCC2)o1 (centres undefined) | inconclusive: 39.8 µM [inhibitor, single point] | –
30 | Cc1[nH]nc2c1C(c1ccccc1F)NC2=O (centres undefined) | inactive | –
31 | CCOC(=O)CCc1c(C)nc2ncnn2c1C | inactive | –
32 | COc1cc2c(=O)n(Cc3ccccc3)c(=O)n(CC(=O)NCC3CCCO3)c2cc1OC (centres undefined) | inconclusive: 39.8 µM [inhibitor, single point] | –
33 | CN(C)c1ccc(-c2ccc3ncnc(NCc4ccccc4)c3c2)cc1 | inactive | –
34 | COCc1c(C)cc(C)c(/C=N/O)c1C | inconclusive: 25.1 µM [inhibitor, partial curve] | –
35 | CNC(=O)[C@H](C)[C@H]1C[C@]1(C)[C@H](NC(=O)OCc1ccccc1)c1ccccc1 | inactive | –
36 | O=C(Nc1nc(-c2ccc(Cl)s2)cs1)c1ccncc1 | inconclusive: 12.6 µM [inhibitor, partial curve] | –
37 | N#Cc1nc(-c2ccco2)oc1N1CCCC1 | active: 3.16 µM | –
38 | COc1ccc(Cc2nc(-c3ccc(Br)cc3)no2)cc1 | inactive | –
39 | COc1ccc(N2CCN(C(=O)CSc3ccccc3N)CC2)cc1 | inconclusive: 39.8 µM [inhibitor, single point] | –
40 | COc1ccc(CCn2c(-c3ccco3)nc3ccccc3c2=O)cc1OC | inconclusive: 5.01 µM [inhibitor, single point] | –
41 | COc1ccc(-n2nc(C(=O)NCc3ccco3)c3c4ccccc4n(C)c3c2=O)cc1Cl | active: 25.1 µM | –
42 | COc1ccccc1OCCCCCNCCO | inconclusive: 31.6 µM [inhibitor, single point] | –
43 | COc1cc(C(c2sc3nc(C)nn3c2O)N2CC(C)OC(C)C2)cc(OC)c1OC (centres undefined) | inactive | –
44 | CCN1C=C(C(=O)OC)C(c2cccc(C)c2)C(C(=O)OC)=C1 | active: 31.6 µM | –
45 | O=S(=O)(Nc1ccc2c(c1)OCO2)c1cccs1 | inconclusive: 31.6 µM [inhibitor, single point] | –
46 | COCCn1cc(C(=O)NCCCN2CCC(C)CC2)c2c3ccccc3n(C)c2c1=O | inconclusive: 39.8 µM [inhibitor, single point] | –
47 | Cc1ccc(NC(=O)c2cc(S(=O)(=O)N3CCC4(CC3)OCCO4)ccc2F)cc1 | inactive | –
48 | CCOC(=O)c1c(NC(=O)CN2CCN(c3ccccn3)CC2)sc2c1CCCC2 | inconclusive: 0.0631 µM [inhibitor, full curve, poor fit] | –
49 | CCCCOc1ccc(-c2c(C#N)c(N)nc(SCC(N)=O)c2C#N)cc1 | inconclusive: 39.8 µM [inhibitor, single point] | –
50 | CCN(CC)CCCCn1c(-c2ccccc2)nc2c(N(CCOC)CCOC)nc(C)nc21 | inconclusive: 31.6 µM [inhibitor, single point] | –

Row | Compound | Potency | activity change, negative = inhibition
51 | Cc1csc2ncc(C(=O)Nc3ccon3)c(=O)n12 | active: 25.1 µM | –
52 | Cc1cccn2c(=O)c3cc(C#N)c(=NC(=O)c4ccncc4)n(CCCOC(C)C)c3nc12 | active: 2 µM | –
53 | CCCCCNC(=O)c1ccc2c(=O)[nH]c3c(C(=O)NCC4CCCO4)sc(=S)n3c2c1 (centres undefined) | inconclusive: 20 µM [inhibitor, partial curve] | –
54 | CO/N=C(\C(=O)N[C@@H]1C(=O)N2C(C(=O)O)=C(COC(C)=O)CS[C@@H]12)c1csc(N)n1 | active: 12.6 µM | –
55 | O=C(Nc1ccc2oc(-c3ccncc3)nc2c1)c1c(F)c(F)c(F)c(F)c1F | inconclusive: 31.6 µM [inhibitor, single point] | –
56 | Cc1[nH]c2ccc(C(=O)OCCN(C)C)cc2c1C | inactive | –
57 | O=c1oc(-c2ccco2)nc2c1cnn2-c1ccccc1 | inconclusive: 12.6 µM [inhibitor, partial curve] | –
58 | C/C(Cl)=C/Cn1c(SC(C)C)nc2c1c(=O)[nH]c(=O)n2C | inconclusive: 5.01 µM [inhibitor, single point] | –
59 | CC(C)(C)c1csc(NC(=O)c2ccc(Cl)s2)n1 | inconclusive: 20 µM [inhibitor, partial curve] | –
60 | Cc1cc(C)n(Cc2ccc(C(=O)NCc3ccco3)o2)n1 | inactive | –
61 | CSc1ccc(C2C(C#N)=C(N)N(c3ccccc3)C3=C2C(=O)CCC3)cc1 (centres undefined) | inconclusive: 25.1 µM [inhibitor, single point] | –
62 | Cc1cc(C(=O)Nc2sc(C)c(-c3ccc(F)cc3)c2C(N)=O)no1 | inconclusive: 12.6 µM [inhibitor, partial curve] | –
63 | N#CC(C(=O)NCc1ccco1)c1nc2ccccc2nc1N1CCOCC1 (centres undefined) | inactive | –
64 | COc1cc(C(=O)Nc2oc(-c3ccccc3)c(-c3ccccc3)c2C#N)cc(OC)c1OC | inconclusive: 39.8 µM [inhibitor, single point] | –
65 | CCc1cccc(C)c1NC(=O)CSc1nnc(-c2cc3cc(Br)ccc3o2)n1CC | inconclusive: 39.8 µM [inhibitor, single point] | –
66 | Cc1onc(-c2ccccc2Cl)c1C(N)=O | inconclusive: 3.98 µM [inhibitor, single point] | –
67 | CCOC(=O)N1CCN(C(=O)Nc2sc3nc4n(c(=O)c3c2C)CCC(C)CC4)CC1 (centres undefined) | inconclusive: 31.6 µM [inhibitor, single point] | –
68 | O=C(CSc1nnc(Cc2cccs2)n1Cc1ccco1)Nc1ccc(Br)cc1 | inconclusive: 31.6 µM [inhibitor, single point] | –
69 | C=C(C)C(O)/C=C/C=C/c1ccccc1 (centres undefined) | – | inactive: -8.58% [at 11.4 µM]
70 | CCOc1cc(C2C(C#N)=C(N)SC(N)=C2C#N)ccc1OCCN1CCOCC1 | active: 3.98 µM | –
71 | CC1(C)CC(=O)c2c(noc2-c2ccccc2)C1 | inactive | –
72 | CCOc1ccccc1C(=O)Nc1cc(Cl)ccc1O | inactive | –
73 | CCC(C)Nc1nc(SC(C(C)=O)C(C)=O)nc(N(C)C)n1 (centres undefined) | inactive | –
74 | N#CC1=C(N)Oc2n[nH]c(-c3cccs3)c2C1c1cccs1 (centres undefined) | inconclusive: 5.01 µM [inhibitor, full curve] | –
